# Measured values reported in ChEMBL document CHEMBL1156829.
# Several values for one entry are separate records, joined by “and”; a condition that tells them apart may be missing. Equal entries are not always repeated. Over roughly 5,400 compounds, “IFI” has its median near 2; the highest 2% begin near 22. The list shows a part of the results.
# Test: NOVARTIS: Inhibition Frequency Index (IFI) - the number of HTS assays where a compound showed > 50% inhibition/induction, expressed as a percentage of the number of assays in which the compound was tested.
# Assay type: functional
row,Compound,IFI
1,Cc1cc(C)n(-c2cc(NN=Cc3cc(Br)ccc3O)nc(C)n2)n1,0%
2,COc1cccc(OC)c1C(=O)Nn1c(-c2cccc(C)c2)nc2ccccc2c1=O,1.16%
3,N#Cc1c(N)n(CCc2ccc(Cl)cc2Cl)c2nc3ccccc3nc12,3.12%
4,Clc1cccc(Cl)c1C[n+]1ccc2ccccc2c1,7.69%
5,CC(C)N1CCCC(C(=O)Nc2ccc(-c3nc4ccccc4[nH]3)cc2)C1 (centres undefined),7.69%
6,c1ccc(Cn2nnnc2CN2CCN(C(c3ccccc3)c3ccccc3)CC2)cc1,5.88%
7,NC1=NC(c2ccccc2)N(c2ccccc2)C(N)=N1 (centres undefined),1.57%
8,Cc1ccccc1CN1CCN(C/C=C/c2ccccc2)CCC1=O,0.962%
9,CCCCCCN(C(=O)c1ccc(Cl)cc1)C(CC)c1nc2ccccc2c(=O)n1-c1ccccc1OC (centres undefined),1.92%
10,O=C(NC1CC1)c1ccc(CSCc2ccccc2Cl)o1,0%
11,Cc1ccc(N=C(Nc2ccc(C)cc2)Nc2ccccc2O)cc1,3.3%
12,CC(NCCCN(C)C)c1cc(C(C)(C)C)cc2c1CCC2(C)C (centres undefined),10.6%
13,COC(=O)[C@@H]1C[C@@H](NC(=O)c2ccc(OC)cc2OC)CN1Cc1cc(C)ccc1C,1.71%
14,Cc1ccc(N=C2S/C(=C\c3ccccc3)C(=O)N2c2ccc(C)cc2)cc1,1.21%
15,CC1=CC(=C(C#N)c2nc3ccccc3s2)C=C(C)N1CC1CCCO1 (centres undefined),3.12%
16,Cc1cc(C)c2nc(SCC(=O)Nc3ccc4c(c3)OCCO4)cc(C)c2c1,17.1%
17,CC(=O)Nc1ccc(C2NC(=O)NC3=Nc4ccccc4SC(c4ccccc4)=C32)cc1 (centres undefined),0%
18,Cc1ccc(-c2c[n+](-c3ccccc3)c3n2CCCS3)cc1,7.69%
19,CCN1/C(=C/c2ccc3cc(OC)ccc3[n+]2CC)Sc2ccc(NC(C)=O)cc21,5.26%
20,O=C(NCCCCNc1ccnc2cc(Cl)ccc12)c1ccccc1Br,1.85%
21,COc1cc(C(=O)NC(C)C)ccc1OC1CCN(CC(c2ccccc2)c2ccccc2)CC1,2.78%
22,C=CCSc1nc2sc3c(c2c(=O)n1-c1ccccc1)CCN(CCC)C3,7.84%
23,O=C(NCc1ccccc1)c1cnc(NCCCn2ccnc2)nc1NCCc1ccccc1,2.91%
24,Oc1ccc(-c2ccc(F)cc2)cc1CN1CCCCCC1,1.71%

row,Compound,IFI
1,COC(=O)C1=C(C)NC2=C(C(=O)CC(c3ccc(Cl)cc3)C2)C1c1ccc(F)cc1 (centres undefined),3.61%
2,C=CCn1c(SCC(=O)c2cc(C)n(-c3ccccc3F)c2C)nc2sc3c(c2c1=O)CCCC3,0%
3,COc1cccc(-c2ccc(O)c(CNCC3CC4C=CC3C43CC3)c2)n1 (centres undefined),4.31%
4,COCCNCc1cc2cc3c(cc2n(Cc2cccc(F)c2)c1=O)OCO3,5.46%
5,CCOC(=O)CN1C(=O)c2ccccc2Sc2ncccc21,0%
6,COc1cc(C=NNc2nc3ccccc3[nH]2)ccc1O,0%
7,COc1ccc(-n2c(=S)[nH]c3cc(C(=O)Nc4cccc(C)c4)ccc3c2=O)cc1OC,0%
8,COc1cc(NC(C)CCCN(Cc2ccc(OC)c(OC)c2)C(=O)c2ccccc2)c2ncccc2c1 (centres undefined),0.917%
9,CCOC(=O)c1sc(NC(=O)CSc2nnc(CNC(=O)c3ccco3)n2-c2ccc(F)cc2)c(C(=O)OCC)c1C,2.35%
10,COc1cc(CNNc2nc3cc(Cl)ccc3[nH]2)cc(OC)c1OC,0%
11,Cc1cc(Cl)c(S(=O)(=O)N2CCSCC2)cc1OCC(=O)NC1CCCCC1,0%
12,Fc1ccc(C(CCNc2ncnc3c2[nH]c2ccccc23)c2ccco2)cc1 (centres undefined),16.7%
13,CCCN(CCC)C1=CC(=O)C(C(C)(C)C)=CC1=O,0%
14,C=CCNC(=O)c1ccc2c(c1)N=C(/C=C/c1ccccc1)N(CCc1cccc(OC)c1)C2,8.64%
15,CCOCCCNC(=O)c1cc(NC(=O)c2ccc(Cl)c([N+](=O)[O-])c2)ccc1N1CCCCC1,2.78%
16,CCOC(=O)c1c(CNc2ccncc2)n(C)c2cc(Br)c(OC(C)=O)cc12,3.03%
17,Cc1ncc([N+](=O)[O-])n1CCOC(=O)c1c(NC(=O)c2ccccc2)sc2c1CCCC2,1.5%
18,CC(C)CN1C(=O)c2ccccc2C(C(=O)Nc2ccccn2)C1c1cccs1 (centres undefined),2.33%
19,COc1ccc(Nc2nc(NN=Cc3cc([N+](=O)[O-])ccc3OC)nc(Nc3ccc([N+](=O)[O-])cc3)n2)cc1,2.86%
20,CC(C)(C)OCCN(CC(O)CN(Cc1ccccc1)C(=O)NC(c1ccccc1)c1ccccc1)S(=O)(=O)c1ccccc1 (centres undefined),0.935%
21,CCC(c1nc2ccccc2c(=O)n1-c1ccc(Cl)cc1C)N(CCc1ccccc1)C(=O)c1cccc(OC)c1 (centres undefined),2.83%
22,Fc1ccc(Nc2nc(OC(C(F)(F)F)C(F)(F)F)nc(OC(C(F)(F)F)C(F)(F)F)n2)cc1,1.54%
23,O=C1Nc2ccccc2C1=NN=Cc1ccc(-c2ccccc2[N+](=O)[O-])o1,0%
24,Cc1nc([P+](c2ccccc2)(c2ccccc2)c2ccccc2)c(N2CCCCC2)o1,9.09%

row,Compound,IFI
1,CN(C)CCNC(=O)c1ccc(-c2cncc(NCc3ccc(Cl)c(Cl)c3)c2)cc1,2.13%
2,O=C(Nc1ccc(-c2nc3ccc(-c4nc5ccc(NC(=O)c6cccc7ccccc67)cc5[nH]4)cc3[nH]2)cc1)c1cccc2ccccc12,5.97%
3,CCCCCCN(CCCCCC)CC(O)c1cc(-c2ccc(Cl)cc2)nc2c(C)cc(C)cc12 (centres undefined),4.54%
4,Cc1cnc(NC(=O)Nc2ccc(-c3ccc(NC(=O)Nc4ncc(C)s4)c(C)c3)cc2C)s1,7.14%
5,CN(C)c1cc[n+](Cc2c(Cl)cccc2Cl)cc1,7.14%
6,Cc1ccc(-n2c(-c3ccccc3)cc(C=NNC(=O)c3cccc(O)c3)c2-c2ccccc2)cc1,0%
7,COc1ccc(OC)c(-c2ccc(O)c(CN(C)CC(O)c3ccccc3)c2)c1 (centres undefined),0.99%
8,Cc1c(CN2CCC(N3CCC(C(=O)NC4CC4)CC3)CC2)[nH]c2c(Cl)cccc12,0%
9,CC[n+]1c(C=CN(C)c2ccccc2)sc2ccc(OC)cc21,9.38%
10,Cc1ccc2[nH]c(C)c(Br)c(=O)c2c1,2.9%
11,COc1cc(C(=O)NC(c2ccc3c(c2)OCO3)c2cc(Cl)c3cccnc3c2O)cc(OC)c1OC (centres undefined),0%
12,CC(C)Nc1ccc(Nc2ccnc3cc4ccccc4cc23)cc1,14.3%
13,O=C(Nc1c2ccccc2nc2ccccc12)c1cc(Cl)ccc1O,3.03%
14,COc1cccc(-c2ccc(O)c(CN3CCC(C)CC3)c2)n1,1.74%
15,CCOc1ccc2c(C)nc(NC(N)=NC(C)=O)nc2c1,5.8%
16,CCOC(=O)C1=C(C)NC2=C(C(=O)C(C(=O)OCC)C(c3ccccc3OC)C2)C1c1ccc(Cl)cc1 (centres undefined),3.75%
17,CN(C)CCNc1cc(-c2cccc(C(F)(F)F)c2)nc(-c2ccncc2)n1,0%
18,Clc1nc(Nc2ccccc2)nc(N2CCCCC2)n1,0%
19,CCCCNCC(O)(c1ccc(Cl)cc1)c1ccc(Cl)cc1,1.27%
20,CO[C@H](C(=O)[C@@H](O)[C@@H](C)O)[C@@H]1Cc2cc3cc(O[C@H]4C[C@@H](O[C@@H]5C[C@@H](O)[C@@H](O)[C@@H](C)O5)[C@@H](O)[C@H](C)O4)c(C)c(O)c3c(O)c2C(=O)[C@H]1O[C@H]1C[C@@H](O[C@H]2C[C@@H](O[C@H]3C[C@](C)(O)[C@@H](O)[C@H](C)O3)[C@H](O)[C@@H](C)O2)[C@H](O)[C@H](C)O1,9.38%
21,Cc1cc(NS(=O)(=O)c2ccc(NC(=O)c3ccc([N+](=O)[O-])cc3)cc2)no1,0%
22,Cc1cc(Nc2cccc(Cl)c2)nc2ccc(NC(=O)c3cccnc3)cc12,0%
23,CC(=O)Nc1ccc2c(c1)C(=O)N(C(C(=O)NC1CCCCC1)c1ccc([N+](=O)[O-])cc1)[C@@H](c1ccccc1)C(=O)N2 (some centres undefined),1.22%
24,CC(=O)NC1=NN(C(C)=O)C(C)(c2ccc([N+](=O)[O-])cc2)S1 (centres undefined),0%

row,Compound,IFI
1,CC(C)Sc1nc2c(c(=O)n1Cc1ccco1)C1(CCCCC1)Cc1ccccc1-2,0%
2,COc1ccc2sc(Nc3nc(-c4ccccn4)cs3)nc2c1,11.1%
3,COC(=O)N(C)C(C)(C)C(C)=NOC(=O)c1ccccc1,0%
4,Cc1cccc(NS(=O)(=O)c2ccc3[nH]c(=O)ccc3c2)c1C,0%
5,COc1ccc2[nH]c3c(c2c1)CCNC3c1ccc(OC)c(CSc2nnc(-c3ccccc3)o2)c1 (centres undefined),2.31%
6,Cc1sc2nc(CN(C(=O)CCc3ccccc3)C3CCCCC3)[nH]c(=O)c2c1C,1.85%
7,CN1CCN(C(c2ccco2)c2sc3ncnn3c2O)CC1 (centres undefined),0%
8,Cc1cccc(C)c1NC(=O)CN1C(=O)C(C)(C)Oc2ccc(C(=O)NC(C)(C)C)cc21,0%
9,COc1cc(/C=C2\SC(c3ccc(C)cc3)=NC2=O)cc(OC)c1OC,0%
10,O=C(Nc1ccc(C2=NCCN2)cc1)c1ccc(NC(=O)c2ccc(C3=NCCN3)cc2)cc1,0%
11,CCN1C=Cc2ccccc2/C1=C\c1ccc2ccccc2[n+]1CC,23.6%
12,CCN(CC)CCN1C(=O)c2ccccc2NC1c1ccc(N(C)C)cc1 (centres undefined),5.26%
13,O=C(Nc1cccc(-c2csc(-c3ccccc3)n2)c1)c1cccs1,0%
14,CC(C)[C@@H](CO)Nc1ccnc2c(-c3ccccc3F)cnn12,0%
15,Cc1cc(C)[n+]2nc(N)c3ccccc3c2n1,1.83%
16,Nc1nc(NCC2CCC(CNS(=O)(=O)c3cccc4ccccc34)CC2)nc2ccccc12 (centres undefined),3.91%
17,CC1(C)N=C(N)N=C(N)N1c1ccc(Oc2ccc(Cl)cc2)c(Cl)c1,10.6%
18,CCC(C(=O)N(C)CCCNc1ccnc2cc(Cl)ccc12)c1ccccc1 (centres undefined),2.97%
19,CCN1/C(=C/c2ccc3ccccc3[n+]2CC)Sc2c1ccc1ccccc21,24.1% and 14.3%
20,CCCC[n+]1c(-c2ccccc2)cc(-c2ccccc2)cc1-c1ccccc1,17.5%
21,COc1ccc(C2CC(=O)C3=C(C2)NC(C)=C(C(=O)OC2CCCC2)C3c2ccccc2Cl)cc1OC (centres undefined),5.95%
22,ClC12CC3CC(C1)CC(n1nnc4ccccc41)(C3)C2,1.47%
